Earlier results in patent US20200016134A1, “COMPOSITIONS AND METHODS FOR TREATING SUBSTANCE ABUSE DISORDERS” (EMBERA NEUROTHERAPEUTICS, INC., priority 2016, published 2020).

System: rats
Conditions: subsequent testing, Goeders et al., 1993; cited from earlier work

Cc1nnc2n1-c1ccc(Cl)cc1C(c1ccccc1)=NC2 [alprazolam]
tolerance to the reduction of cocaine self-administration: no tolerance was observed
